The list shows a part of the results. Rule as the data show it: active = 3.2 or more and inactive = the rest. The signal is at background level for most entries.
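Also: displayed peptides selected on beads carrying the immobilized SH2 domain, with library peptides lacking any tyrosine serving as negative controls.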

The target of the first test is SHP2 C-SH2 domain E139D. The test is described as follows: enrichment score (SH2-bound / input frequency) (ratio); bacterial display of known human phosphotyrosine sites (pTyr-Var adds point mutants) read by sequencing; higher = stronger binding; tyrosines were phosphorylated by kinases first. The following applies: peptide library: pTyr-Var.
As to CLMILYRLKER [PTPRR_Y249], the enrichment score is inactive: 2.26.
For WEPFGFAVTRC [PTPRT_Y412_Y412F], the enrichment score was inactive: 0.732.
Same read-out and setting: the value for RPQDGFRIVQH [PTPRT_Y1329_Y1329F] was inactive: 0.91; that for HKGASYVFRLS [PTPRD_Y891] was inactive: 2.56.
Still for that read-out and setting: the value for GPQGVYSNKLV [PTPN14_Y506] was inactive: 0.731.
On the same count and under the same terms, under GSERRYSREGG [PTPRN2_Y139] stands inactive: 0.27; under RGFRVYFTPDS [PTPRF_Y450_YF], inactive: 2.9; under AALSAYAPQRP [PTPRN2_Y249_A251P], inactive: 0.704.

Another test concerns the target SHP2 C-SH2 domain wild-type. The test is described as above. The following applies: peptide library: pTyr-Var.
Take CLMILYRLKER [PTPRR_Y249]: the enrichment score is inactive: 1.82.
On the same count and under the same terms, the value for WEPFGFAVTRC [PTPRT_Y412_Y412F] was inactive: 0.783; that for RPQDGFRIVQH [PTPRT_Y1329_Y1329F] was inactive: 0.704.
As to HKGASYVFRLS [PTPRD_Y891], the enrichment score is inactive: 2.46.
As for GPQGVYSNKLV [PTPN14_Y506], the enrichment score is inactive: 0.456.
On to GSERRYSREGG [PTPRN2_Y139], for which the enrichment score is inactive: 0.359.
Still for that read-out and setting: the value for RGFRVYFTPDS [PTPRF_Y450_YF] was inactive: 2.55; that for AALSAYAPQRP [PTPRN2_Y249_A251P] was inactive: 0.654.

In another test the target is SHP2 N-SH2 domain L43F. Described as above. The note with it: peptide library: pTyr-Var.
For CLMILYRLKER [PTPRR_Y249], the enrichment score is inactive: 2.08.
Still for that read-out and setting: the value for WEPFGFAVTRC [PTPRT_Y412_Y412F] was inactive: 0.561; that for RPQDGFRIVQH [PTPRT_Y1329_Y1329F] was inactive: 0.875.
For HKGASYVFRLS [PTPRD_Y891], the enrichment score was inactive: 2.61.
With GPQGVYSNKLV [PTPN14_Y506], the enrichment score is inactive: 0.509.
The same measure, in the same setting: under GSERRYSREGG [PTPRN2_Y139] stands inactive: 0.382.
As for RGFRVYFTPDS [PTPRF_Y450_YF], the enrichment score was inactive: 2.41.
The same measure, in the same setting: under AALSAYAPQRP [PTPRN2_Y249_A251P] stands inactive: 0.72.

The target in another test is SHP2 N-SH2 domain T42A. The description is as above. The note with it: peptide library: pTyr-Var.
Regarding CLMILYRLKER [PTPRR_Y249], the enrichment score was inactive: 1.84.
WEPFGFAVTRC [PTPRT_Y412_Y412F]: the enrichment score was inactive: 0.502.
For RPQDGFRIVQH [PTPRT_Y1329_Y1329F], the enrichment score is inactive: 0.648.
Same read-out and setting: under HKGASYVFRLS [PTPRD_Y891] stands inactive: 1.84; under GPQGVYSNKLV [PTPN14_Y506], inactive: 0.448; under GSERRYSREGG [PTPRN2_Y139], inactive: 0.381.
Same read-out and setting: the value for RGFRVYFTPDS [PTPRF_Y450_YF] was inactive: 2.01; that for AALSAYAPQRP [PTPRN2_Y249_A251P] was inactive: 0.761.

Another test concerns the target SHP2 N-SH2 domain T52S. Described as above. The note with it: peptide library: pTyr-Var.
In the case of CLMILYRLKER [PTPRR_Y249], the enrichment score was inactive: 2.24.
As for WEPFGFAVTRC [PTPRT_Y412_Y412F], the enrichment score is inactive: 0.465.
Take RPQDGFRIVQH [PTPRT_Y1329_Y1329F]: the enrichment score was inactive: 0.607.
The same measure, in the same setting: under HKGASYVFRLS [PTPRD_Y891] stands inactive: 2.34.
On to GPQGVYSNKLV [PTPN14_Y506], for which the enrichment score was inactive: 0.416.
Take GSERRYSREGG [PTPRN2_Y139]: the enrichment score is inactive: 0.487.
Regarding RGFRVYFTPDS [PTPRF_Y450_YF], the enrichment score is inactive: 2.56.
In the case of AALSAYAPQRP [PTPRN2_Y249_A251P], the enrichment score is inactive: 0.758.

A further test concerns the target SHP2 N-SH2 domain wild-type. The test is described as above. The note with it: peptide library: pTyr-Var.
CLMILYRLKER [PTPRR_Y249]: the enrichment score was inactive: 1.86.
WEPFGFAVTRC [PTPRT_Y412_Y412F]: the enrichment score was inactive: 1.1.
Consider RPQDGFRIVQH [PTPRT_Y1329_Y1329F], for which the enrichment score was inactive: 0.966.
On the same count and under the same terms, the value for HKGASYVFRLS [PTPRD_Y891] was inactive: 2.34; that for GPQGVYSNKLV [PTPN14_Y506] was inactive: 0.453.
On to GSERRYSREGG [PTPRN2_Y139], for which the enrichment score was inactive: 0.331.
For the molecule RGFRVYFTPDS [PTPRF_Y450_YF], the enrichment score is inactive: 2.02.
Same read-out and setting: the value for AALSAYAPQRP [PTPRN2_Y249_A251P] was inactive: 1.05.
